Sequences and labels used below:
B1: chr4:25749455:25749456:-_ENSG00000091490_ENST00000264868|hu_hu|hu_hu_hu_mus_False|1_98 (ssRNA)
RNA: GGGAGUUCUACAGUCCGACGAUCGCACUAUGACCUCCCCUAGAAAACACAGGGGGAAAAAAUGUAAACCAAUGUACAAUGUUAUCGCCUUCCCUGUGUGUGGAGUGUUUGUCUCAAGGCUCCUUCUAGCUGCUGGACUGCUAGCAACAGAGGAUUGAGCAUCA
B2: chr4:24557968:24557969:-_ENSG00000109606_ENST00000336812|hu_mus|FALSE|FALSE (ssRNA)
RNA: GGGAGUUCUACAGUCCGACGAUCACCCAUGAGAAUAUCUGUAGCCAAUGUUCUUUCAUGGGCCUCAUCAAGAAUUAUCACACCAUAACGCUCCAGAAGGGGAUCGUUCAUGGCUUCACGAAGUAGCAUCCCGUCAGUCAUAUACAACAGAGGAUUGAGCAUCA
B3: chr4:95690885:95690886:+_ENSMUSG00000028572_ENSMUST00000156910|mus_mus|mus_mus_mus_hu_False|8_58 (ssRNA)
RNA: GGGAGUUCUACAGUCCGACGAUCUUUAGAAAAUGUUAAAUACCAUGCUAAAAUAUUUUCAAAGGCUUAUUUUAUUUUACUAAAAGACACAGGCAAGCAGACACUACAAGAAUAUAUGAAAAUGAAACAACAGUGUAUAACUGUCAACAGAGGAUUGAGCAUCA
B4: chr11:116197844:116197845:-_ENSMUSG00000052949_ENSMUST00000100202|mus_hu|FALSE|FALSE (ssRNA)
RNA: GGGAGUUCUACAGUCCGACGAUCAGAGGGGUACACAGAUGGCACAAGCAGUAUACACAUGCACACACCAGGUGUGCAGACCAAAGCAAAGUGAGCGACCAGCGUGCUAAACUCCAGGUGGGCAGGACCCCAACUCCCAGGUGACAACAGAGGAUUGAGCAUCA
B5: 232645778_232645898_181_3pUTR_ENSG00000156973_ENST00000287600|human|control|control (ssRNA)
RNA: GGGAGUUCUACAGUCCGACGAUCUGAAGCCCCUCAGGAUCUCCCUGGCCCGCUCGUCCUUGGCUGACAUGAUGCGGCGGUCGCCGCCCGCGGCUUUCUCACUCUGGUCGGCGGAGCCUCGCAGACGGUGCCCAGGAGCCGAGGCAACAGAGGAUUGAGCAUCA
B6: chrX:70775091:70775092:+_ENSG00000147162_ENST00000373719|hu_mus|motif|central (ssRNA)
RNA: GGGAGUUCUACAGUCCGACGAUCAUCGGGGAAAUGGGGUUGCAGUUCGAUAGCUCUCCUGUAGGUAUCAAUGGCCAGGUCGGUUAGGCCUUGCUCGUAGUACACACAAGCCAGGUUGCCGUGCACCACCGCAUGAUUUGGGCUCAACAGAGGAUUGAGCAUCA

Some of the results follow.

For the assay, the target named is T1, UNK ZnF1-3 (human, UniProt Q9C0B0 31-174).
T1 sequence: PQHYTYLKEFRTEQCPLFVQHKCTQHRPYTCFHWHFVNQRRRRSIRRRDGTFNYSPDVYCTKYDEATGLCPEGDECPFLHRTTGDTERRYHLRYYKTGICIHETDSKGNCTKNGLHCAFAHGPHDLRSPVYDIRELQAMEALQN
Description: nsRBNS (natural sequence RNA bind-n-seq); RBNS binding buffer (assumed for nsRBNS): 25 mM Tris pH 7.5, 150 mM KCl, 3 mM MgCl2, 0.01% Triton X-100, 500 ug/ml BSA, 20 U/ml SUPERase-In, 4 C; UNK is unkempt and MSI1 is Musashi-1; names of the RNAs are library labels; protein concentration not given here; high values mean tight binding.
B1 returned a binding signal of 1.01 enrichment R.

B2 came in with a binding signal of 0.416 enrichment R.

Molecule B3 gave a binding signal of 1.89 enrichment R.

B4 came in with a binding signal of 1.54 enrichment R.

In the case of B5, the binding signal came to 0.48 enrichment R.

B6 came in with a binding signal of 0.39 enrichment R.

The values are drawn from article PMC12136788.
